According to publication PMC4336329 (PLoS ONE, 2015):
In all, about 310,000 compounds went through this assay and about 14,000 (4.5%) showed an effect of 50% or more. The effect is printed as a negative number. The list shows a part of the results.

target: human ether-à-go-go-related gene (hERG) potassium channel (human, UniProt Q12809); assay: primary screen, population patch clamp on CHO cells stably expressing hERG
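Also: peak tail current of the secondary pulse compared with the same well before compound.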

human ether-à-go-go-related gene (hERG) potassium channel, sequence (Q12809 whole entry, looked up): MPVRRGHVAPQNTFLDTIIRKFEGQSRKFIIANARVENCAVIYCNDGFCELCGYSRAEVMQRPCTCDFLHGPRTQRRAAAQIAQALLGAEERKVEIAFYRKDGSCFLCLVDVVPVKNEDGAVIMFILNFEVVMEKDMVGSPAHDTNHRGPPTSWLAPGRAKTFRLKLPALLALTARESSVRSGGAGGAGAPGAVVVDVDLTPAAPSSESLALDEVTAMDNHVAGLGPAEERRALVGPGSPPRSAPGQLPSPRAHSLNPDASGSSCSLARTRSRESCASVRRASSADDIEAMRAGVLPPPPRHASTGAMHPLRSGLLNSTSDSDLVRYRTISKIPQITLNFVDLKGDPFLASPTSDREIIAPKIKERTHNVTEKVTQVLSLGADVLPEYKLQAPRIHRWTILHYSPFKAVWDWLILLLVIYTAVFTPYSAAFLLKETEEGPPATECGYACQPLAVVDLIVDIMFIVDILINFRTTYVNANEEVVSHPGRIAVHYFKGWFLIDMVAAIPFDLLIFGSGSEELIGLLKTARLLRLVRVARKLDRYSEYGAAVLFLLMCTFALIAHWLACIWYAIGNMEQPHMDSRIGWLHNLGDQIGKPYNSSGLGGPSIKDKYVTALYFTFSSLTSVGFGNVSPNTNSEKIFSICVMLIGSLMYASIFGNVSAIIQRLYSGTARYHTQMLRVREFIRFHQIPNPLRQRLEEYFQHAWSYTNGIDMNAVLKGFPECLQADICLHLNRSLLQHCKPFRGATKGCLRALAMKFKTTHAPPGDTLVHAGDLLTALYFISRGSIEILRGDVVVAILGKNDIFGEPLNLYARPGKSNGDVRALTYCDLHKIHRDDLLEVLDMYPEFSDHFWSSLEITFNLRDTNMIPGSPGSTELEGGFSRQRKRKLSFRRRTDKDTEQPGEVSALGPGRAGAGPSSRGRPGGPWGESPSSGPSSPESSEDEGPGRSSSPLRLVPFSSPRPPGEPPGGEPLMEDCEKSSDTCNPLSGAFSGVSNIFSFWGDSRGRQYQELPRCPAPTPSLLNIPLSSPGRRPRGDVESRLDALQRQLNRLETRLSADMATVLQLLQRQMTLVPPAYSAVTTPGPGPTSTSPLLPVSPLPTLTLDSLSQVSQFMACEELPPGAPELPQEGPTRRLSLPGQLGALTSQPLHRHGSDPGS

Point of comparison: `CCC(C)(C)C(=O)Nc1cccc(Cl)c1C`, “hERG current change (%, negative = inhibition) at 10uM” value 19.9%. Against it:
- CCc1cc2cc(C)cc(C)c2[nH]c1=S — lower, 7.61%
- Cc1ccc(N(C)/N=C/c2ccc(Cl)cc2Cl)nn1 — the same, 19.9%
- Cc1ccccc1CN1C(=O)C(O)(CC(=O)c2ccncc2)c2ccccc21 (centres unmarked) — lower, 14%
- COc1ccc(Cc2nnc(NC(=O)C3CCN(C(=O)c4ccco4)CC3)s2)cc1 — lower, -8.48%
- COc1ccc(N2C(=O)Cc3ccccc3C2=O)cc1 — higher, 24.7%
- CC(C)CCNc1nc2c(cc1C#N)COC(C)(C)C2 — lower, -7.61%
- COc1ccc(CNC(=O)c2cc3c(=O)n4ccccc4nc3n(Cc3cccnc3)c2=N)cc1 — lower, -58.6%
- CC1(C)CC(=O)c2sc(NC(=O)CCS(=O)(=O)c3ccccc3)nc2C1 — lower, -5.11%
- CC1Cc2cc(/C(O)=C3\C(=O)C(=O)N(CCN4CCOCC4)C3c3ccccc3F)ccc2O1 (centres unmarked) — lower, 3.69%
- COc1cccc(CN(C)C(=O)C2CCN(S(=O)(=O)c3cccs3)CC2)c1OC — lower, -12.1%
- Cc1onc(-c2c(Cl)cccc2Cl)c1C(=O)NCCc1ccc(S(N)(=O)=O)cc1 — lower, -21.6%
- COc1c(C)cc(C(=O)C2CCCN(C(=O)c3snnc3C)C2)cc1C (centres unmarked) — lower, -4.57%
- Cc1onc(-c2ccccc2)c1C(=O)Nc1sc2c(c1C#N)CCC(C)C2 (centres unmarked) — lower, 6.74%
- NS(=O)(=O)c1ccc(CNC(=S)Nc2ccc(Cl)c(Cl)c2)cc1 — lower, 4.6%
- COc1ccc(CNCc2cc3c(C(C)(C)C)nn(-c4ccccc4)c3[nH]c2=O)cc1 — lower, -24%
- Fc1ccc([C@@H]2CCNC[C@H]2COc2ccc3c(c2)OCO3)cc1.O=C(O)/C=C\C(=O)O — lower, -37.1%
- CCOC(=O)CCCNC(=O)COC(=O)CCC(=O)c1ccc(F)cc1 — lower, 3.21%
- CN(CCOC(=O)c1ccc2c(c1)OCCO2)Cc1ccccc1.Cl — lower, -15.1%
- CCOC(=O)C1CCN(S(=O)(=O)C(F)(F)c2nc3ccccc3s2)CC1 — lower, -19.8%
- CC1(/[N+]([O-])=C/c2cccc(Cl)c2)CCCCC1=O (centres unmarked) — lower, 4.74%
- COc1cc(/C=C2\CC(C(C)(C)C)C/C(=C\c3cc(OC)c(OC)c(OC)c3)C2=O)cc(OC)c1OC (centres unmarked) — lower, 15.3%
- CCCOc1ccc(Oc2cc(C)nc(SC)n2)nn1 — lower, 11.3%
- CN(Cc1ccccc1)S(=O)(=O)c1ccc2c(c1)OCCO2 — lower, -21%
- Cc1cc(OCc2nc3ccccc3s2)ccc1N — lower, -1.17%
- COc1cccc(N2C(=O)CC(N3CCC(c4nc5ccccc5[nH]4)CC3)C2=O)c1 (centres unmarked) — lower, -12.7%
- Cc1ccc(S(=O)(=O)N(C)C)cc1NC(=O)c1cc(C(C)(C)C)nn1Cc1ccccc1 — lower, 6.36%
- [O-]/[N+](=C\c1ccccc1)[C@@H]1CCCC[C@@H]1/[N+]([O-])=C/c1ccccc1 — lower, 10.7%
- Cc1oc(-c2ccc(-c3ccccc3)cc2)nc1CN(CCO)C(C)C — lower, -44.1%
- Cc1c2c(nc3nc4ccccc4n13)CC(C)(C)CC2=O — lower, -34.7%
- CCOc1ccc(-c2noc(-c3cccnc3)n2)cc1OCC — lower, 13.7%
- Cc1cc(N2CCNCC2)nc2ccccc12 — lower, -7.37%
- CCC(C(=O)NC(C)(C)C)N(Cc1ccco1)C(=O)CNS(=O)(=O)c1ccc(OC)cc1 (centres unmarked) — lower, 7.49%
- O=C(CO/N=C/c1cccc([N+](=O)[O-])c1)NC1CCCCC1 — lower, -14.4%
- CCOc1ccc(C(=O)O)cn1 — higher, 20.6%
- O=C(NCC(c1ccco1)N1CCN(c2ccccc2)CC1)C(=O)NC1CC1 (centres unmarked) — lower, 3.4%
- Cc1cccc(Oc2ccc(S(=O)(=O)N3CCCCC3)cc2NC(=O)C2=COCCO2)c1 — lower, -48.5%
- O=C(CSc1nnc(-c2cccc(F)c2)o1)N1CCOCC1 — lower, 16.4%
- CC(=O)COc1ncn(-c2ccccc2)n1 — lower, 5.85%
- Cc1[nH]n2c(=O)cc(C(C)C)nc2c1-c1ccccc1 — lower, -12.1%
- Cc1ccc(NC(=O)CCS(=O)(=O)c2ccc3nc(C)sc3c2)cc1 — lower, 15.2%
- CC(NC(=O)C1CCCN1S(=O)(=O)c1ccccc1)c1ccccc1 (centres unmarked) — higher, 22.6%
- COc1ccccc1CNC(=O)C(CC(C)C)NS(=O)(=O)c1ccc2c(c1)oc(=O)n2C (centres unmarked) — lower, 5.97%
- CCOCCCNC(=O)C(c1ccccc1)N(Cc1ccc2c(c1)OCO2)C(=O)CNC(C)=O (centres unmarked) — lower, 2.65%
- CCOC(=O)N1CCC(n2c(SCC(=O)N3CCCC3)nc3ccccc3c2=O)CC1 — lower, -20.9%
- O=C(COC(=O)c1oc2ccccc2c1CSc1ccc(Cl)cc1)NC1CCCC1 — lower, 9.37%
- CCOc1ccc2nc(SCC(=O)c3ccc(Cl)s3)sc2c1 — lower, -0.0959%
- Cc1c(C(=O)N(Cc2ccc(F)cc2)C2CCS(=O)(=O)C2)oc2ccccc12 (centres unmarked) — lower, -25.5%
- CCn1ncc(Br)c1C(=O)Nc1cccc(F)c1 — lower, 2.54%
- Cn1nc(C(=O)Nc2ccccc2N2CCOCC2)ccc1=O — lower, -24.4%
- Cc1cc(C)nc(SCCC(=O)N2CCOCC2)n1 — higher, 23.4%
- CCC(C)C(=O)Nc1nnc(SCC(=O)NC2CCCCC2)s1 (centres unmarked) — higher, 20.9%
- Cc1ccc(C)c(-n2nnnc2SCC(=O)Nc2cccc(-c3nnc4n3CCCCC4)c2)c1 — lower, -29.4%
- CCOc1ccc2c3c(c(=O)oc2c1OCC)CCCC3 — lower, 0.627%
- O=C(O)c1ccccc1C(=O)Nc1ccc(Oc2ccccc2)cc1 — higher, 23.2%
- C1CC1Cc1noc(CN2CCN(C3C4CC5CC(C4)CC3C5)CC2)n1 (centres unmarked) — lower, -48.5%
- N#CC1=C(N)SC(N)=C(C#N)C1c1cccc(Oc2ccccc2)c1 — lower, 16.9%
- CCOC(=O)/C(C#N)=C/c1cc2ccccc2nc1Cl — lower, -9.56%
- Cc1cc(NCCO)c2cc(O)ccc2n1.Cl — higher, 23.4%
- NC(=O)c1cc([N+](=O)[O-])ccc1N1CCCCC1 — lower, -17.2%
- CN1CCSc2ccc(C(=O)Nc3ccc(Cl)cc3)cc21 — lower, 15.3%
- Nc1cc(=O)[nH]c(SCC(=O)Nc2nc3ccc([N+](=O)[O-])cc3s2)n1 — higher, 22.8%
- CCN1CCN(C(CNS(=O)(=O)c2ccc(OC)cc2)c2cccnc2)CC1 (centres unmarked) — lower, -45.4%
- Cc1cccc(NC(=O)Cn2nc(-c3ccco3)ccc2=O)c1C — lower, 10.9%
- CCCc1cc(=O)[nH]c(SCC(=O)Nc2ccc(C)c(S(=O)(=O)N3CCCCC3)c2)n1 — lower, 6.53%
- O=C(c1nc2ccccc2[nH]1)c1ccccc1[N+](=O)[O-] — lower, 5.28%
- CCCc1[nH]nc2c1C(c1ccsc1)C(C#N)=C(N)O2 (centres unmarked) — lower, -7.53%
- CCO[C@@H]1OC(C(=O)NCc2ccccc2)=C[C@H](C2CCCCC2)[C@H]1CCCO — lower, -17.8%
- O=C(O)CSc1ccc2nnc(-c3cccnc3)n2n1 — lower, 12.2%
- O=C(NCc1ccccc1)C1=C[C@@H](c2ccc3c(c2)OCO3)C[C@@H](OCc2ccc(CO)cc2)O1 — lower, -25%
- O=C(Nc1ccccc1)N1CCOCC1 — lower, 14.9%
- CC(C)(C)c1ccc(N=C2SCC(=O)N2Cc2cccs2)cc1 — lower, 9.92%
- CCOc1ccc(-n2ccnc(SCC(=O)Nc3ccc(CC)cc3)c2=O)cc1 — lower, 7.92%
- NS(=O)(=O)c1ccc(NC(=O)COC(=O)CN2C(=O)C3CC=CCC3C2=O)cc1 (centres unmarked) — lower, 0.467%
- O=C(NCCCn1ccnc1)c1ccc2ccccc2c1 — lower, -17.7%
- CCOC(=O)c1c(C)oc2c1c(C(c1cccnc1)N1CCOCC1)c(O)c1ccccc12 (centres unmarked) — lower, 16.9%
- COc1cc2c(cc1OC)C(COc1ccccc1OC)N(C(=O)C(C)C)CC2 (centres unmarked) — lower, -6.65%
- CSCC[C@H](NC(=O)c1ccc(Cl)c(S(=O)(=O)N2CCCC2)c1)c1nc2ccccc2[nH]1 — lower, -30.4%
- O=C(N/N=C/C=C\c1ccco1)c1cccs1 — lower, 14.7%
- CCn1cc(Cl)c(C(=O)Nc2cc(C(=O)OC)cc(C(=O)OC)c2)n1 — lower, 5.97%
- COCCn1c(-c2ccc(F)cc2)nc2cccnc21 — lower, 12.1%
- O=C(Nc1ccc(Br)cc1)c1ccc(N2C(=O)C3CC=CCC3C2=O)cc1 (centres unmarked) — lower, 7.76%
- C/C(=N\NC(=O)C1(C)CC1(Br)Br)c1cccc(NC(=O)C2CCC2)c1 (centres unmarked) — lower, -24.6%
- N/N=C1\CCCc2c1[nH]c1ccc([N+](=O)[O-])cc21 — lower, -5.46%
- CCc1ccc(C(=O)COC(=O)c2cnccn2)cc1 — lower, 0.242%
- O=C(NNC(=O)c1cccs1)c1ccco1 — lower, 12.4%
- CN(C(=O)c1ccc(C#N)cc1)c1nnc(-c2cnccn2)s1 — lower, -8.93%
- CCC(=O)OC1(Cc2ccc(CC)cc2)CC(C)N(C)CC1C.Cl (centres unmarked) — lower, -59.4%
- CC1(C)OC(=O)N(c2ccccc2)C12C=Cc1cc(Br)ccc1O2 (centres unmarked) — lower, -14.4%
